Reference: article PMC2970546
Results are given in words; binding and its absence hold for the method and conditions named. Some entries that bind do so weakly or less than the wild type. One block for each binder: values may come before it.

Chains of the proteins cited; added tags and fusions are not shown. Lines headed by an entry give the natural chain unless they say otherwise; changes in a name come on top. A line that says so, or that is headed by a name, gives the form on record, which may keep a tag or linker.
human septin 3 (Q9UH03, form named): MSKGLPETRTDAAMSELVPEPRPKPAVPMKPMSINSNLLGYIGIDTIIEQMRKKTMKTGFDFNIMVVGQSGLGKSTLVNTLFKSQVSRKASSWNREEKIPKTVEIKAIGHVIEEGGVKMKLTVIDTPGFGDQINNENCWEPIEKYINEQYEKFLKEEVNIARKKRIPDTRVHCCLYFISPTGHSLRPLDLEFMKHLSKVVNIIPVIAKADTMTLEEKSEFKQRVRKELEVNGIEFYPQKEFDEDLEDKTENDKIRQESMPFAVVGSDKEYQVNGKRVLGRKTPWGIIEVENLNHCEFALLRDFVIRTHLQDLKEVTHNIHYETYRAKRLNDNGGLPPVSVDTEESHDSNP

Legend:
Test in all cases: two-hybrid; LexA-septin bait (modified pBTM116) in yeast L40 screened against human fetal brain and human leukocyte cDNA libraries (pACT2); minimal medium without Trp, Leu, His, with 5 mM 3-AT; every clone confirmed one-to-one with its bait by beta-galactosidase filter assay, empty bait vector as control
[1] = biological target: T1, human septin 1 (human) (UniProt Q8WYJ6)
T1 sequence: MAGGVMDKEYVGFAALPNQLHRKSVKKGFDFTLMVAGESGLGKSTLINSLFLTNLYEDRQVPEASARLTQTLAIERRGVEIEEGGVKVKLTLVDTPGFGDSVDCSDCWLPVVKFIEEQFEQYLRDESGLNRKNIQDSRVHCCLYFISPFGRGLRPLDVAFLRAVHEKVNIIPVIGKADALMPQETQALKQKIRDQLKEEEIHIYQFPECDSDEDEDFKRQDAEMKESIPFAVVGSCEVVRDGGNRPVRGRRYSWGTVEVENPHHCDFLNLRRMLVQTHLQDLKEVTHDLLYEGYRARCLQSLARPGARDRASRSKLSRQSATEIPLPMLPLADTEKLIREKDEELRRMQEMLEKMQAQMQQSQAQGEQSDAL

[2] = biological target: T2, human septin 10 (human) (UniProt Q9P0V9)
T2 sequence: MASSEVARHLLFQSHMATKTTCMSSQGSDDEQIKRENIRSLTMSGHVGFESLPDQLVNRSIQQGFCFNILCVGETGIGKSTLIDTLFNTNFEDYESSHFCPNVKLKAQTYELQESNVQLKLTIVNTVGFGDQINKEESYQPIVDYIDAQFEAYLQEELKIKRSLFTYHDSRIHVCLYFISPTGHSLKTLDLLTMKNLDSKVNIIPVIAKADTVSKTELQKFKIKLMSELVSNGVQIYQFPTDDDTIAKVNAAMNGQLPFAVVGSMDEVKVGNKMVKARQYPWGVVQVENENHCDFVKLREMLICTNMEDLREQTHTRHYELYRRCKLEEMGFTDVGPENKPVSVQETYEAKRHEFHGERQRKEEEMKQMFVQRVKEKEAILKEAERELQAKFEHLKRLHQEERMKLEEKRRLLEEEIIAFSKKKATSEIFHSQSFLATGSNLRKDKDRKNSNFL

[3] = biological target: T3, human septin 6 (human) (UniProt Q14141)
T3 sequence: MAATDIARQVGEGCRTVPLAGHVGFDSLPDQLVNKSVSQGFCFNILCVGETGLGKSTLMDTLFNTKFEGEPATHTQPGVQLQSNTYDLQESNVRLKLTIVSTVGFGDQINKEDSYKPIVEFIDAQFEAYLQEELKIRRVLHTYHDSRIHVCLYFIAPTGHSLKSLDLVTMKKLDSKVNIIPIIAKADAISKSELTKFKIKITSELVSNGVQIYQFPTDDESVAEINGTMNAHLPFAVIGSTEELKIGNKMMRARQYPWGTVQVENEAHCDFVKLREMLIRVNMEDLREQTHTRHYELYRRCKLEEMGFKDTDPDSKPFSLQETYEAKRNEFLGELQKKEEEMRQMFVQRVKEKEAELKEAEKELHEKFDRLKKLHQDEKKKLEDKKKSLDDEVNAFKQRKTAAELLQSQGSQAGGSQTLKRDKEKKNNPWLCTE

[4] = biological target: T4, human septin 8 (human) (UniProt Q92599)
T4 sequence: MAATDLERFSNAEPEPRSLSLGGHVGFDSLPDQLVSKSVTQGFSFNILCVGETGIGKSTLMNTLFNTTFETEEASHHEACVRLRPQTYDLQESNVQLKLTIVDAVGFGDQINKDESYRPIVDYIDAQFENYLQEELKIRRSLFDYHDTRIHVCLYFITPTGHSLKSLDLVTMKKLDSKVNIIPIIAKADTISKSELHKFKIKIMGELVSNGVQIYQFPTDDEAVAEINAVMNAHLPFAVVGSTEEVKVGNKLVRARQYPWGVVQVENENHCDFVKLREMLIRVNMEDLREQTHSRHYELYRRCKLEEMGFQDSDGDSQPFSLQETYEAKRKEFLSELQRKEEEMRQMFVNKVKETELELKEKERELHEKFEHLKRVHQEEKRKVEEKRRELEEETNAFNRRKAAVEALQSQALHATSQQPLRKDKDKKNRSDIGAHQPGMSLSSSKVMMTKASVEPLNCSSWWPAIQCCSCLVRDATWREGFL

[5] = biological target: T5, human septin 5 (human) (UniProt Q99719)
T5 sequence: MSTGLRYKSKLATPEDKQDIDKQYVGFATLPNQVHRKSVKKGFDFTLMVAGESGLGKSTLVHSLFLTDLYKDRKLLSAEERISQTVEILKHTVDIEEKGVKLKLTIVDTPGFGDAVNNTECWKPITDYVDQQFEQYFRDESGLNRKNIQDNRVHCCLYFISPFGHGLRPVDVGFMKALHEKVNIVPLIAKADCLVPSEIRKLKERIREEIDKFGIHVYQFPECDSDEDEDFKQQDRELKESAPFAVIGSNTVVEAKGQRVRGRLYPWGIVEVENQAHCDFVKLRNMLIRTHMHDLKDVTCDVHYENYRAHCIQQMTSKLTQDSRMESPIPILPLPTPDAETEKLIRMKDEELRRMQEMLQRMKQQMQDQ

[6] = biological target: human septin 3 (human) (UniProt Q9UH03)
[7] = biological target: T6, human septin 6 (human), Q14141; conditions: remark: other sources report otherwise
T6 chain: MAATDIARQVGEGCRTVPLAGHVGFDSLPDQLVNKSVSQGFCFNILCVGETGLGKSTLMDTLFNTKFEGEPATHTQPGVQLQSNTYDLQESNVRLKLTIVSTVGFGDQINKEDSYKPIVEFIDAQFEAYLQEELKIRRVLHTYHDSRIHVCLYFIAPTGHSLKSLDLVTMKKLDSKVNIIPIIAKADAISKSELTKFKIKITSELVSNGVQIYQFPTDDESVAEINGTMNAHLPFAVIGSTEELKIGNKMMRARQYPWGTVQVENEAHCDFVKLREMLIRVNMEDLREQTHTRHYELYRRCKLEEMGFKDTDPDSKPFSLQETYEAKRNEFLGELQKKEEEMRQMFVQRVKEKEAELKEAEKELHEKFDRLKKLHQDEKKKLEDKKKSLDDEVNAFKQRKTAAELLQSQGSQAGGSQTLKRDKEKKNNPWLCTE

B1: human septin 1 (protein, UniProt Q8WYJ6-1 1-372)
chain: MAGGVMDKEYVGFAALPNQLHRKSVKKGFDFTLMVAGESGLGKSTLINSLFLTNLYEDRQVPEASARLTQTLAIERRGVEIEEGGVKVKLTLVDTPGFGDSVDCSDCWLPVVKFIEEQFEQYLRDESGLNRKNIQDSRVHCCLYFISPFGRGLRPLDVAFLRAVHEKVNIIPVIGKADALMPQETQALKQKIRDQLKEEEIHIYQFPECDSDEDEDFKRQDAEMKESIPFAVVGSCEVVRDGGNRPVRGRRYSWGTVEVENPHHCDFLNLRRMLVQTHLQDLKEVTHDLLYEGYRARCLQSLARPGARDRASRSKLSRQSATEIPLPMLPLADTEKLIREKDEELRRMQEMLEKMQAQMQQSQAQGEQSDAL
binding [1]: binds
binding [2]: no binding
binding [3]: binds
binding [4]: binds

B3: SEPT5(39-369) (domain or fragment, UniProt Q99719 39-369)
chain: VKKGFDFTLMVAGESGLGKSTLVHSLFLTDLYKDRKLLSAEERISQTVEILKHTVDIEEKGVKLKLTIVDTPGFGDAVNNTECWKPITDYVDQQFEQYFRDESGLNRKNIQDNRVHCCLYFISPFGHGLRPVDVGFMKALHEKVNIVPLIAKADCLVPSEIRKLKERIREEIDKFGIHVYQFPECDSDEDEDFKQQDRELKESAPFAVIGSNTVVEAKGQRVRGRLYPWGIVEVENQAHCDFVKLRNMLIRTHMHDLKDVTCDVHYENYRAHCIQQMTSKLTQDSRMESPIPILPLPTPDAETEKLIRMKDEELRRMQEMLQRMKQQMQDQ
binding [3]: binds

B4: SEPT7(65-437) (domain or fragment, UniProt Q16181 65-437)
chain: TLINSLFLTDLYSPEYPGPSHRIKKTVQVEQSKVLIKEGGVQLLLTIVDTPGFGDAVDNSNCWQPVIDYIDSKFEDYLNAESRVNRRQMPDNRVQCCLYFIAPSGHGLKPLDIEFMKRLHEKVNIIPLIAKADTLTPEECQQFKKQIMKEIQEHKIKIYEFPETDDEEENKLVKKIKDRLPLAVVGSNTIIEVNGKRVRGRQYPWGVAEVENGEHCDFTILRNMLIRTHMQDLKDVTNNVHYENYRSRKLAAVTYNGVDNNKNKGQLTKSPLAQMEEERREHVAKMKKMEMEMEQVFEMKVKEKVQKLKDSEAELQRRHEQMKKNLEAQHKELEEKRRQFEDEKANWEAQQRILEQQNSSRTLEKNKKKGKIF
binding [3]: binds

B6: SEPT11(7-429) (domain or fragment, UniProt Q9NVA2 7-429)
chain: RPSNEELRNLSLSGHVGFDSLPDQLVNKSTSQGFCFNILCVGETGIGKSTLMDTLFNTKFESDPATHNEPGVRLKARSYELQESNVRLKLTIVDTVGFGDQINKDDSYKPIVEYIDAQFEAYLQEELKIKRSLFNYHDTRIHACLYFIAPTGHSLKSLDLVTMKKLDSKVNIIPIIAKADTIAKNELHKFKSKIMSELVSNGVQIYQFPTDEETVAEINATMSVHLPFAVVGSTEEVKIGNKMAKARQYPWGVVQVENENHCDFVKLREMLIRVNMEDLREQTHTRHYELYRRCKLEEMGFKDTDPDSKPFSLQETYEAKRNEFLGELQKKEEEMRQMFVMRVKEKEAELKEAEKELHEKFDLLKRTHQEEKKKVEDKKKELEEEVNNFQKKKAAAQLLQSQAQQSGAQQTKKDKDKKNASFT
binding [6]: binds

Results, then the binder that gave them:

binding [1]: binds
binding [2]: no binding
binding [5]: binds
binding [3]: binds
binding [4]: binds
B2: human septin 2 (protein, UniProt Q15019-1 1-361)
chain: MSKQQPTQFINPETPGYVGFANLPNQVHRKSVKKGFEFTLMVVGESGLGKSTLINSLFLTDLYPERVIPGAAEKIERTVQIEASTVEIEERGVKLRLTVVDTPGYGDAINCRDCFKTIISYIDEQFERYLHDESGLNRRHIIDNRVHCCFYFISPFGHGLKPLDVAFMKAIHNKVNIVPVIAKADTLTLKERERLKKRILDEIEEHNIKIYHLPDAESDEDEDFKEQTRLLKASIPFSVVGSNQLIEAKGKKVRGRLYPWGVVEVENPEHNDFLKLRTMLITHMQDLQEVTQDLHYENFRSERLKRGGRKVENEDMNKDQILLEKEAELRRMQEMIARMQAQMQMQMQGGDGDGGALGHHV

binding [6]: binds
B5: SEPT6(4-427) (domain or fragment, UniProt Q14141 4-427)
chain: TDIARQVGEGCRTVPLAGHVGFDSLPDQLVNKSVSQGFCFNILCVGETGLGKSTLMDTLFNTKFEGEPATHTQPGVQLQSNTYDLQESNVRLKLTIVSTVGFGDQINKEDSYKPIVEFIDAQFEAYLQEELKIRRVLHTYHDSRIHVCLYFIAPTGHSLKSLDLVTMKKLDSKVNIIPIIAKADAISKSELTKFKIKITSELVSNGVQIYQFPTDDESVAEINGTMNAHLPFAVIGSTEELKIGNKMMRARQYPWGTVQVENEAHCDFVKLREMLIRVNMEDLREQTHTRHYELYRRCKLEEMGFKDTDPDSKPFSLQETYEAKRNEFLGELQKKEEEMRQMFVQRVKEKEAELKEAEKELHEKFDRLKKLHQDEKKKLEDKKKSLDDEVNAFKQRKTAAELLQSQGSQAGGSQTLKRDKEKKN

binding [7]: no binding
B7: human septin 8, Q92599-1 1-483 (protein)
chain: MAATDLERFSNAEPEPRSLSLGGHVGFDSLPDQLVSKSVTQGFSFNILCVGETGIGKSTLMNTLFNTTFETEEASHHEACVRLRPQTYDLQESNVQLKLTIVDAVGFGDQINKDESYRPIVDYIDAQFENYLQEELKIRRSLFDYHDTRIHVCLYFITPTGHSLKSLDLVTMKKLDSKVNIIPIIAKADTISKSELHKFKIKIMGELVSNGVQIYQFPTDDEAVAEINAVMNAHLPFAVVGSTEEVKVGNKLVRARQYPWGVVQVENENHCDFVKLREMLIRVNMEDLREQTHSRHYELYRRCKLEEMGFQDSDGDSQPFSLQETYEAKRKEFLSELQRKEEEMRQMFVNKVKETELELKEKERELHEKFEHLKRVHQEEKRKVEEKRRELEEETNAFNRRKAAVEALQSQALHATSQQPLRKDKDKKNRSDIGAHQPGMSLSSSKVMMTKASVEPLNCSSWWPAIQCCSCLVRDATWREGFL
